Results reported in a collection of fitness landscapes (doi:10.1126/science.1257360).
This is one part of the list.

B1: PhoQ; a variant is named by its letters at X, in order, P23837 (parent)
chain: MKKLLRLFFPLSLRVRFLLATAAVVLVLSLAYGMVALIGYSVSFDKTTFRLLRGESNLFYTLAKWENNKLHVELPENIDKQSPTMTLIYDENGQLLWAQRDVPWLMKMIQPDWLKSNGFHEIEADVNDTSLLLSGDHSIQQQLQEVREDDDDAEMTHSVAVNVYPATSRMPKLTIVVVDTIPVELKSSYMVWSWFIYVLSANLLLVIPLLWVAAWWSLRPIEALAKEVRELEEHNRELLNPATTRELTSLVRNLNRLLKSERERYDKYRTTLTDLTHSLKTPLXXLQXXLRSLRSEKMSVSDAEPVMLEQISRISQQIGYYLHRASMRGGTLLSRELHPVAPLLDNLTSALNKVYQRKGVNISLDISPEISFVGEQNDFVEVMGNVLDNACKYCLEFVEISARQTDEHLYIVVEDDGPGIPLSKREVIFDRGQRVDTLRPGQGVGLAVAREITEQYEGKIVAGESMLGGARMEVIFGRQHSAPKDE

Variants of: B1
Test: enrichment ratio after two sorts for PhoP signalling (ratio (wild type AVST 3.29)); higher = more functional
Conditions: with PhoP (E. coli)

| Variant | enrichment ratio |
| --- | --- |
| NNFA | ≤ 0.25 |
| KIKW | ≤ 0.25 |
| VENP | ≤ 0.25 |
| EMVE | ≤ 0.25 |
| LRNH | ≤ 0.25 |
| TPCT | ≤ 0.25 |
| MHEG | ≤ 0.25 |
| FEKL | ≤ 0.25 |
| YICV | 4.39 |
| VLWE | ≤ 0.25 |
| DYST | ≤ 0.25 |
| MGVW | ≤ 0.25 |
| NWEG | ≤ 0.25 |
| QQFI | 3.9 |
| AWFP | ≤ 0.25 |
| GRHV | ≤ 0.25 |
| THVS | ≤ 0.25 |
| GYEL | ≤ 0.25 |
| MDLY | ≤ 0.25 |
| SSKY | ≤ 0.25 |
| PKPI | ≤ 0.25 |
| SCAT | 16.1 |
| YINK | ≤ 0.25 |
| NKCQ | ≤ 0.25 |
| WSSQ | ≤ 0.25 |
| HVKS | ≤ 0.25 |

| Variant | enrichment ratio |
| --- | --- |
| HCQL | ≤ 0.25 |
| KISN | ≤ 0.25 |
| IKRW | 0.863 |
| HQFY | ≤ 0.25 |
| SREI | ≤ 0.25 |
| KLIT | ≤ 0.25 |
| VYGY | ≤ 0.25 |
| IWNF | ≤ 0.25 |
| DKAI | ≤ 0.25 |
| APGI | ≤ 0.25 |
| YVPC | ≤ 0.25 |
| QMWC | ≤ 0.25 |
| KSPQ | ≤ 0.25 |
| DDSF | ≤ 0.25 |
| ARVV | 0.976 |
| EFNW | ≤ 0.25 |
| VIPA | ≤ 0.25 |
| TREI | ≤ 0.25 |
| TDQQ | ≤ 0.25 |
| VSIE | ≤ 0.25 |
| ELHN | ≤ 0.25 |
| IHQQ | ≤ 0.25 |
| FFTH | ≤ 0.25 |
| WLKT | ≤ 0.25 |
| DQLH | ≤ 0.25 |
| DIPC | ≤ 0.25 |

| Variant | enrichment ratio |
| --- | --- |
| MSMT | ≤ 0.25 |
| HPDA | ≤ 0.25 |
| DEGF | ≤ 0.25 |
| IPTT | ≤ 0.25 |
| YMLL | ≤ 0.25 |
| KYPA | ≤ 0.25 |
| VHPV | ≤ 0.25 |
| GCYL | ≤ 0.25 |
| VNMR | ≤ 0.25 |
| QRYW | ≤ 0.25 |
| NCWE | ≤ 0.25 |
| WKIY | ≤ 0.25 |
| WNML | ≤ 0.25 |
| GNWG | ≤ 0.25 |
| GWMQ | ≤ 0.25 |
| YSCP | ≤ 0.25 |
| SRCF | ≤ 0.25 |
| SLFQ | ≤ 0.25 |
| WKAE | ≤ 0.25 |
| VTYK | ≤ 0.25 |
| EYSS | ≤ 0.25 |
| NCCK | ≤ 0.25 |
| NSEM | ≤ 0.25 |
| PTQE | ≤ 0.25 |
| WLST | ≤ 0.25 |
| SKAH | 2.14 |

| Variant | enrichment ratio |
| --- | --- |
| LWWL | ≤ 0.25 |
| GTNI | ≤ 0.25 |
| IWLH | ≤ 0.25 |
| VNAG | ≤ 0.25 |
| YVYN | ≤ 0.25 |
| VAHR | ≤ 0.25 |
| QPWP | ≤ 0.25 |
| MRPA | ≤ 0.25 |
| FFAP | ≤ 0.25 |
| KRIG | ≤ 0.25 |
| AIAG | 12.5 |
| AFHR | ≤ 0.25 |
| EQTM | ≤ 0.25 |
| ERLG | ≤ 0.25 |
| DALD | ≤ 0.25 |
| HSRG | ≤ 0.25 |
| NDKR | ≤ 0.25 |
| VFFL | 0.347 |
| EQHI | ≤ 0.25 |
| DETS | ≤ 0.25 |
| RFVP | ≤ 0.25 |
| VFQP | ≤ 0.25 |
| DNFS | ≤ 0.25 |
| DFII | ≤ 0.25 |
| LTWK | ≤ 0.25 |
| EMCD | ≤ 0.25 |

| Variant | enrichment ratio |
| --- | --- |
| MWRN | ≤ 0.25 |
| FKNT | ≤ 0.25 |
| QHMN | ≤ 0.25 |
| SCSY | 9.45 |
| IIRN | ≤ 0.25 |
| TKAI | 8.08 |
| NRYG | ≤ 0.25 |
| LDRN | ≤ 0.25 |
| MKAY | ≤ 0.25 |
| QPTI | ≤ 0.25 |
| RECY | ≤ 0.25 |
| IHLN | ≤ 0.25 |
| NMAC | ≤ 0.25 |
| QYKG | ≤ 0.25 |
| LHDM | ≤ 0.25 |
| SDNM | ≤ 0.25 |
| ASIS | 7.49 |
| EEMR | ≤ 0.25 |
| TGVD | ≤ 0.25 |
| DTRG | ≤ 0.25 |
| TAGK | ≤ 0.25 |
| LMPH | 0.42 |
| VFTV | ≤ 0.25 |
| EECY | ≤ 0.25 |
| PQNS | ≤ 0.25 |
| RGVS | ≤ 0.25 |

| Variant | enrichment ratio |
| --- | --- |
| TVFK | ≤ 0.25 |
| NDTS | ≤ 0.25 |
| AMFK | ≤ 0.25 |
| DPMK | ≤ 0.25 |
| RNAQ | ≤ 0.25 |
| EHFT | ≤ 0.25 |
| FMPE | ≤ 0.25 |
| DFTK | ≤ 0.25 |
| TIDL | ≤ 0.25 |
| VPKC | ≤ 0.25 |
| SVPE | ≤ 0.25 |
| YFLQ | ≤ 0.25 |
| NWET | ≤ 0.25 |
| FSHV | ≤ 0.25 |
| HDLG | ≤ 0.25 |
| YIPL | ≤ 0.25 |
| LHTK | ≤ 0.25 |
| SMIE | ≤ 0.25 |
| GPHQ | ≤ 0.25 |
| LRVS | ≤ 0.25 |
| DSFG | ≤ 0.25 |
| QHPN | ≤ 0.25 |
| RNYN | ≤ 0.25 |
